Experimental data: PubChem BioAssay AID624417 (National Center for Advancing Translational Sciences (NCATS), 2012)
Hit rate of the full screen: of about 410,000 compounds, about 6,400 (1.6%) were called active. The inconclusive results got no clear call from the source; some entries with a clear call stand among them for comparison. Calls follow the shape of the dose curve; as a rule, active = well fitted inhibition curve with a large enough effect; inconclusive = small, poorly fitted or top-dose-only effect; inactive = no such curve, though single readings can be large or run the other way. Where the call is inconclusive, the potency comes from a doubtful curve fit.

Biological target: Glucagon-like peptide 1 receptor (Homo sapiens) (UniProt P43220)
Experiment: qHTS of GLP-1 Receptor Inverse Agonists (Inhibition Mode); also: nearly all actives have a fitted effect of over 55% in size
Settings: HEK293 GLP-1R CRE-luciferase, luminescence, 24 h, GLP-1R form is constitutively active; activity change, negative = inhibition: at 38.3 µM (top of the series) unless noted
Method in brief: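 Stable HEK293 clone (constitutively active GLP-1R + cAMP-response luciferase); 200 cells/uL plated, 12 h pre-culture, compound 24 hr, 37 deg C/5% CO2; detection reagent 12 min RT; luminescence.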
% is scaled to controls: 0 for no effect and ±100 for the full control effect; potency is read from the fitted curve at half-maximal effect; tags tell the direction and shape of the fitted curve.

Sequence of UniProt P43220 (P43220 whole entry, looked up): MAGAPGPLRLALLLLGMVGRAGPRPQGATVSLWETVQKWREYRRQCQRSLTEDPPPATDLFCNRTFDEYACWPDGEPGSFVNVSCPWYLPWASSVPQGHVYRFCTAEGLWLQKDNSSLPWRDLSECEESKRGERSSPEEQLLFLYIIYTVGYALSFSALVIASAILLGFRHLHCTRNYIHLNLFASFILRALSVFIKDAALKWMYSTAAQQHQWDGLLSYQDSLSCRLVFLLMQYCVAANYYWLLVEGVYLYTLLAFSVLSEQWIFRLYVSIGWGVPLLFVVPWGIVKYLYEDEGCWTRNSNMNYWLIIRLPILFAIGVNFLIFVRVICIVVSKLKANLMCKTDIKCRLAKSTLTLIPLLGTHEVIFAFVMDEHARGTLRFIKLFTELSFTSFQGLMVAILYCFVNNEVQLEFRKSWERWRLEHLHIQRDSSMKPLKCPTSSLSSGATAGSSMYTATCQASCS

Potency, active:
O=C(CSc1nc2ccccc2s1)N1c2ccccc2Sc2ccc(C(F)(F)F)cc21 5.01 µM

Potency, inconclusive:
C=CCOC(=O)C(C#N)c1nc2ccccc2nc1N1CCN(c2ccccc2OCC)CC1 (stereo not drawn) 15.8 µM [inhibitor, single point], Cc1cc(C)c(C)c(S(=O)(=O)N2CCC(C(=O)N3CCCCCCC3)CC2)c1C 2 µM [inhibitor, full curve, poor fit], COc1ccc(OCc2n(CC(=O)OC3CC(C)CCC3C(C)C)c3ccccc3[n+]2C)cc1 (stereo not drawn) 14.1 µM [inhibitor, partial curve, poor fit], CCOC(=O)C(=NO)C1=CSC2=NNC(C)(C)N12 28.2 µM [inhibitor, single point], CC(=O)c1cccc(NC(=O)c2ccc3c(c2)c(C)c(C)n3Cc2ccc(Cl)cc2)c1 10 µM [inhibitor, partial curve, poor fit], O=c1cc(CSc2ccc(Cl)cc2)nc(-c2ccccn2)[nH]1 2.24 µM [inhibitor, full curve, poor fit], COc1ccc(OC)c(/C=C2\SC(=S)N(NS(=O)(=O)c3ccc(C)cc3)C2=O)c1 11.2 µM [inhibitor, partial curve, poor fit], O=C1[C@H]2C(c3ccccc3)=NN(c3ccccc3)[C@H]2C(=O)N1c1ccccc1 8.91 µM [inhibitor, partial curve, poor fit], N=c1c2c(-c3ccccc3)c(-c3ccccc3)n(Cc3ccco3)c2ncn1CCCN1CCOCC1 7.08 µM [inhibitor, partial curve, poor fit], Cc1cccc(NC(=O)CSc2nc3sc(C)cc3c(=O)n2C)c1 31.6 µM [inhibitor, single point], Cc1occc1-c1nnc(SCC(=O)NCc2cccs2)n1-c1ccc(F)cc1 6.31 µM [inhibitor, partial curve], CCCOc1ccccc1C1CC(=O)NC2=C1C(=O)CCC2 (stereo not drawn) 10 µM [inhibitor, partial curve], CCN(CC)CCOC(=O)C(Cc1ccco1)Cc1cccc2ccccc12 (stereo not drawn) 7.08 µM [inhibitor, partial curve, poor fit], Cc1ccc(C(=O)c2ccc(C)cc2)cc1 28.2 µM [inhibitor, single point], COc1ccc(/C=N/NC(=O)C2C(C=C(Cl)Cl)C2(C)C)c(OC)c1 (stereo not drawn) 12.6 µM [inhibitor, single point], Cc1cc(C)cc(NC(=O)CNC(c2ccccc2)c2ccccc2)c1 10 µM [inhibitor, partial curve, poor fit], Cc1ccsc1C(=O)OCC(=O)Nc1ccc(Cl)cn1 11.2 µM [inhibitor, single point], Cc1ccc2c(c1)C(c1ccccc1)N(C(=O)c1cccc([N+](=O)[O-])c1)CC(=O)N2 (stereo not drawn) 8.91 µM [inhibitor, partial curve, poor fit], OC(c1ccccc1)(c1nc(-c2csc3ccccc23)cs1)C(F)(F)F (stereo not drawn) 20 µM [inhibitor, single point], COc1ccc(S(=O)(=O)N(C)CC(=O)NCCC2=CCCCC2)cc1C 11.2 µM [inhibitor, single point], CCC1CCCCN1Cc1nc2ccccc2c(=O)n1CC(C)=O (stereo not drawn) 12.6 µM [inhibitor, partial curve, poor fit], CC(CCc1ccccc1)NC(=O)c1ccc(Br)cc1 (stereo not drawn) 12.6 µM [inhibitor, single point], Cc1cccc(Nc2cc(C)nc3nc(Cc4ccc(Cl)cc4)nn23)c1 31.6 µM [inhibitor, single point], Clc1ccc2[nH]c(-c3ccccc3)cc2c1 28.2 µM [inhibitor, single point], COc1ccc2ccc3c(c2c1)N=C[C@]1(O3)N(C)c2ccccc2C1(C)C 28.2 µM [inhibitor, single point], COc1ccc(C(=O)OCC(=O)c2cc(C)n(CC3CCCO3)c2C)cc1[N+](=O)[O-] (stereo not drawn) 10 µM [inhibitor, partial curve, poor fit], COc1ccccc1N(/N=C1\Sc2ccccc2C1=O)C(C)=O 2.24 µM [inhibitor, partial curve, poor fit], O=C(Nc1ccc2nn(-c3ccccc3)nc2c1)c1ccc2c(c1)OCCO2 4.47 µM [inhibitor, full curve, poor fit], COc1ccc(C(CNC(=O)c2cccc(NS(=O)(=O)c3ccc(C)c(F)c3)c2)N2CCCC2)cc1 (stereo not drawn) 11.2 µM [inhibitor, partial curve, poor fit], Cc1cc(C(=O)N/N=C/c2cc(Br)cc(Br)c2OC(=O)c2cccc(F)c2)n[nH]1 1.58 µM [inhibitor, full curve, poor fit], COc1ccc2nc(Sc3c([N+](=O)[O-])nc(C)n3Cc3ccccc3)[nH]c2c1 10 µM [inhibitor, partial curve, poor fit], COc1ccc(N(C(=O)c2ccccc2OC(C)=O)C(C)C2CC2)cc1 (stereo not drawn) 28.2 µM [inhibitor, single point], COc1ccc(N2CCN(C(=S)NC(C)c3ccccc3)CC2)cc1 (stereo not drawn) 25.1 µM [inhibitor, single point], CC(=O)N/N=C/c1cc(C(C)C)cc(/C=N/NC(C)=O)c1O 7.94 µM [inhibitor, partial curve, poor fit], CC(C)n1cc(/C=C(\C#N)S(=O)(=O)c2ccccc2)c2ccccc21 8.91 µM [inhibitor, partial curve, poor fit], CCOc1ccccc1CNC(=O)c1ccc2nc(CCc3ccccc3)oc2c1 14.1 µM [inhibitor, single point], CCOc1ccc(N2C(=O)CSC23CCCCC3)cc1 28.2 µM [inhibitor, single point], CCCCNc1ccc2c(c1)C1CC2CCN1C(=O)OCc1ccccc1 (stereo not drawn) 22.4 µM [inhibitor, single point], CCc1ccc(N2CC(C)Cn3c2nc2c3c(=O)n(CCN3CCOCC3)c(=O)n2C)cc1 (stereo not drawn) 0.501 µM [inhibitor, full curve, poor fit], COc1ccccc1CN(C)C(=O)CNC(=O)c1cccc(Cl)c1 11.2 µM [inhibitor, single point], CCOC(=O)C(NC(=O)c1ccccc1OCC)(Nc1ncccn1)C(F)(F)F (stereo not drawn) 12.6 µM [inhibitor, single point], O=C1c2ccccc2C(=O)N1CCCCCc1nc(-c2ccccc2)no1 12.6 µM [inhibitor, single point], C[C@@]12CCC3[C@@](CCC4[C@@]3(C)CCC[C@@]4(C)C(=O)NCc3ccccc3)(CC1=O)C2 (stereo partly drawn) 11.2 µM [inhibitor, partial curve, poor fit], CCN(CC)CCNC(=O)c1ccc2c(=O)n3nc(Nc4cccc(Cl)c4C)sc3nc2c1 7.08 µM [inhibitor, partial curve, poor fit], COc1ccc(C2=[N+]([O-])C(C)(C)C(c3ccccc3)=N2)cc1 12.6 µM [inhibitor, partial curve, poor fit], Fc1ccccc1SCc1nnc(-c2ccccc2Br)o1 12.6 µM [inhibitor, single point], CC1=C(C(=O)Nc2cc(C(=O)NCc3ccccc3)ccc2C)SCCO1 8.91 µM [inhibitor, partial curve, poor fit], CCOC(=O)Cc1ccc(NC(=O)c2ccccc2Br)cc1 12.6 µM [inhibitor, partial curve, poor fit], CC(C)(C)c1ccc(/C=C/C(=O)N2CCc3ccccc3C2)cc1 28.2 µM [inhibitor, single point]

Activity change, negative = inhibition, inconclusive:
CN1CCN(CC(=O)Nc2ccc(OC(F)(F)F)cc2)CC1 -33% [inhibitor]

Activity change, negative = inhibition, inactive:
OC(COC1CCCCC1)CN1CCN(c2ccccc2)CC1 (stereo not drawn) 0%, Cc1ccc(-c2nn(-c3ccccn3)c(=O)c3ccccc23)cc1 -6.15%, CSc1cccc(NC(=O)CCCOc2cc(=O)n(C)c3ccccc23)c1 12.9%, COc1ccc(OCC(=O)Nc2ccc(N3CCOCC3)c(Cl)c2)cc1 -24%, COc1ccc(CCN(C)C(=O)CN2C(=O)NC3(CCCCCC3)C2=O)cc1OC 48.9%, COc1ccc2c(CN(C)Cc3ccccc3)cc(=O)oc2c1 5.3%, O=C(NCCO)c1ccc(Oc2ccc(C(F)(F)F)cc2[N+](=O)[O-])cc1 10.4%, CCOc1ccc(N2CC(C(=O)N3CCCCC3)CC2=O)cc1 (stereo not drawn) 10.8%, Cc1ccc(Cn2cc3c(n2)-c2c(oc(C(=O)Nc4ccc(F)cc4F)c2C)CC3)cc1 3.07%, CCCCc1ccc(NC(=O)COc2ccc(C(=O)Nc3ccccc3OCC)cc2)cc1 21.1%, N#Cc1nc(/C=C/c2ccc(F)cc2)oc1N1CCCCC1 0.0064%, CC(C)(C)c1nnc(SCC(=O)Nc2ccc(N3CCCCC3)cc2)n1N -20.3%
